Experimental data published in the supplement of paper PMC3334620.
In all, about 33,000 sequences were measured (“E-score (-0.5 to 0.5)”: median about -0.016, highest 2% from about 0.31 on). This is one part of the list.

molecular target: Cst6 (UniProt P40535); assay: PBM E-score (8-mer binding enrichment) (E-score (-0.5 to 0.5)); higher = stronger / more preferred TF binding; most listed sequences are background and not binding sites; settings: protein concentration: 200 nM; construct: GST-DNA-binding domain
Outline: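 The E-score, a modified Wilcoxon-Mann-Whitney statistic, was computed by the Universal PBM Analysis Suite for every ungapped eight-base word pooled with its reverse complement. Scans behind it were normalised with masliner after bound GST-tagged yeast transcription factors were detected with fluorescent anti-GST. The proteins, at about 100-200 nM, had been applied to universal all-10-mer Agilent arrays made double-stranded by primer extension.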

| Sequence | PBM E-score |
| --- | --- |
| ACCTTTTC | -0.133 |
| GTTTGACA | 0.118 |
| CCCGCCGC | 0.126 |
| TGAAAGAA | 0.201 |
| CGTCCCGA | -0.208 |
| CCCTAGAA | -0.081 |
| CAGAACGG | -0.0224 |
| ACACGTAT | 0.238 |
| ACTGATCC | -0.0776 |
| AACCACCC | -0.173 |
| GACTATAA | 0.0702 |
| CTGAAACC | -0.0192 |
| AAACAAAT | 0.192 |
| GCAAAACC | -0.128 |
| AATCACAG | 0.0637 |
| CAATTACG | 0.346 |
| CTACCGAC | -0.13 |
| GCCCAGCC | -0.179 |
| AAAACGGT | -0.0645 |
| ATTTTGAC | 0.163 |
| AGAATGTA | 0.163 |
| CCCGAACA | -0.14 |
| GGTTGCAA | 0.0302 |
| AATAGCCC | -0.132 |
| ATTGGTTA | 0.22 |

| Sequence | PBM E-score |
| --- | --- |
| CGGAAATA | 0.155 |
| AACTGCTT | -0.0903 |
| ACGCCGCG | 0.302 |
| TACGCGGA | 0.0461 |
| CGAAATTC | 0.00331 |
| AAGTACCT | -0.196 |
| ACGATCAC | 0.144 |
| ATGCTGGC | -0.173 |
| CAGGATGC | -0.125 |
| AGCTGTGC | -0.104 |
| AAGCATGC | 0.0597 |
| GAAAAGAA | 0.0954 |
| AGGGCCGA | -0.224 |
| CGGTAGCA | -0.189 |
| ACGCGGCA | 0.28 |
| AAGTAAAT | 0.214 |
| CTGCTTTC | -0.0636 |
| ATGGACAC | 0.0741 |
| ACTGAACA | 0.178 |
| GAGGATAA | -0.0994 |
| TACACATA | 0.159 |
| AGGTAGCG | -0.155 |
| AGGGCTGA | -0.161 |
| AGCAAGAG | -0.0362 |
| GCATATGC | 0.00078 |

| Sequence | PBM E-score |
| --- | --- |
| ACGCCGGC | 0.0474 |
| GCCTCGAC | -0.142 |
| ACGTAAGG | 0.347 |
| ACAACCTG | -0.0213 |
| ATAGATAT | 0.238 |
| ATACACCA | -0.0648 |
| AGTGGGAG | -0.137 |
| AGTGTCGC | -0.0178 |
| ATTTGATA | 0.249 |
| AGCATACT | -0.0974 |
| AGATCTAG | 0.0255 |
| CCATACTA | -0.0952 |
| CTCGTACC | -0.205 |
| TCTACGAA | -0.129 |
| TCTGCAGA | -0.0548 |
| ATTTTCCC | 0.0136 |
| CGACTAAG | -0.261 |
| GGCACACC | -0.18 |
| GTATTTAA | 0.189 |
| CACGATGG | -0.161 |
| AATGCGAG | 0.137 |
| GCACCTAA | -0.00624 |
| AGTCGGTG | -0.217 |
| TATTAACA | 0.15 |
| AGAAGTGG | -0.0997 |

| Sequence | PBM E-score |
| --- | --- |
| AACAATCT | -0.0115 |
| AAGGTAAA | 0.0394 |
| ACCATTAT | 0.0218 |
| CGCGTCGC | -0.0598 |
| TGACATAA | 0.477 |
| AACTTCTT | 0.133 |
| CATGTGAC | 0.301 |
| AACATAGA | 0.0102 |
| ACCGCAGG | -0.104 |
| ACATGTAT | 0.0876 |
| CGCAAGCA | -0.0224 |
| CGCCCTCA | -0.2 |
| AGATGACC | 0.0152 |
| ATGAAGGC | -0.00363 |
| CTTAACCA | 0.157 |
| TAAACGAA | 0.13 |
| ACGCGAAT | 0.127 |
| GGACTAGA | -0.12 |
| TATATACA | 0.161 |
| ACCCGGCG | -0.271 |
| AGCAGACT | 0.0907 |
| ACCCAAAA | 0.107 |
| CAAGGCAA | 0.151 |
| GGTACGTA | 0.136 |
| GCCTTCGC | -0.012 |

| Sequence | PBM E-score |
| --- | --- |
| CGTGCGAA | 0.161 |
| CCATATCC | -0.153 |
| AGGGCGAT | -0.0672 |
| AATAACTG | 0.0271 |
| GCTCGAGC | 0.115 |
| ACAGGCTG | -0.261 |
| ACGGGAAA | 0.0463 |
| GACAAGGC | -0.114 |
| ATAGGTCA | 0.165 |
| AGGGGGTG | -0.442 |
| CGCCTGAA | -0.0216 |
| GAATTTAC | 0.223 |
| ACAATGAC | 0.336 |
| CTATTTCC | 0.0532 |
| CAGACTGA | -0.0699 |
| CACACCCC | -0.294 |
| ACATACGT | 0.291 |
| TGACAGCA | 0.275 |
| CACACTAG | -0.192 |
| ACGACGTG | 0.061 |
| GGCTACAA | 0.0135 |
| ACGAATGA | 0.268 |
| CGACTTGA | -0.124 |
| ACCAGTGA | 0.0246 |
| GAATTGAA | 0.194 |

| Sequence | PBM E-score |
| --- | --- |
| CTAGCCTC | -0.23 |
| AATCGGAC | -0.132 |
| CCACTGTA | 0.043 |
| ACTGAGCG | -0.0539 |
| GGCGTGAA | -0.114 |
| CAGCGGCA | 0.0723 |
| AAGTCCAC | -0.26 |
| GCGTATCA | 0.0408 |
| ATGGTGGG | -0.217 |
| CGCGCAGA | 0.178 |
| TACTTACA | 0.165 |
| TAATGAAA | 0.261 |
| AGGACATC | 0.0339 |
| CAGGCGAG | -0.261 |
| AACTCCTC | -0.313 |
| GCGGCATA | 0.26 |
| GTTCAAGA | 0.0751 |
| GCCTACCC | -0.231 |
| ATCGGAAA | -0.0211 |
| GCCCTACC | -0.0719 |
| CCGCCGTC | 0.206 |
| ATGGAGCA | 0.0798 |
| ACCAACGG | -0.141 |
| AGCGGTTG | -0.0171 |
| CGGCAGAC | -0.212 |

| Sequence | PBM E-score |
| --- | --- |
| AGCAGGGG | -0.367 |
| ATGGTGCC | -0.0511 |
| CCCCGCCA | -0.0416 |
| AGTATGCG | -0.0706 |
| CAGTTATG | 0.00312 |
| AGGCGTCG | 0.0103 |
| GCACCCGA | -0.13 |
| AAATAATA | 0.287 |
| AACGTGCT | -0.122 |
| AGACTTAT | -0.0263 |
| AACTCTCG | -0.0849 |
| TGTGCTAA | 0.137 |
| GGACTTTA | -0.159 |
| AACCTTAG | -0.158 |
| GGACCCGA | -0.287 |
| GTGACAAA | 0.186 |
| TAAATACA | 0.111 |
| TCGTGAAA | -0.0522 |
| AATTTTGT | 0.173 |
| AGCACGAC | -0.263 |
| AATTCAGC | -0.0332 |
| ATCCTGGC | -0.234 |
